# Whole data set: some 81,000 sequences, median “one-hybrid fitness for binding NBS DNA” near -0.1, cut for the highest 2% near 0.36. Some of the results follow.
# B1: Caulobacter ParB omega fusion; a variant is named by its letters at X, in order, B8GW30 (parent)
# chain: MESVVVGEPGMSEGRRGLGRGLSALLGEVDAAPAQAPGEQLGGSREAPIEILQRNPDQPRRTFREEDLEDLSNSIREKGVLQPILVRPSPDTAGEYQIVAGERAWRAAQRAGLKTVPIMVRELDDLAVLEIGIIENVQRADLNVLEEALSYKVLMEKFERTQENIAQTIGKSXSHVANXMRLLXLPDEVQSYLVSGELTAXHARAIAAAADPVALAKQIIEGGLSVRETEALARKAPNLSAGKSKGGRPPRVKDTDTQALESDLSSVLGLDVSIDHRGSTGTLTITYATLEQLDDLCNRLTRGI
# Variants of: B1
# Assay: one-hybrid fitness for binding NBS DNA (the Noc-binding site; scaled: cognate 1, non-cognate 0); higher = stronger binding
# Settings: with NBS DNA site
# Summary of the method: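 Bacterial one-hybrid selection in E. coli USO rpoZ- hisB- pyrF- with a HIS3 reporter carrying the site 19 bp from the promoter, screening Caulobacter ParB libraries with four specificity codons randomised (NNS). Cells grew 48 hours at 37°C on M9-minus-histidine plus 0.1 mM IPTG and 5 mM 3-AT. Plasmids before and after selection were Illumina-sequenced, three replicate libraries pooled, and variants under 10 reads dropped. Fitness is the log change in variant-to-wild-type read ratio, rescaled to cognate 1, non-cognate 0.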
row,Variant,one-hybrid fitness for binding NBS DNA
1,KRAH,≤ 0.2
2,PHMH,≤ 0.2
3,LHKC,≤ 0.2
4,AAVG,≤ 0.2
5,PRWV,≤ 0.2
6,FSAL,≤ 0.2
7,QVCK,≤ 0.2
8,EVWS,≤ 0.2
9,ISGM,≤ 0.2
10,WMML,≤ 0.2
11,RNVW,≤ 0.2
12,VDCG,≤ 0.2
13,ALMW,≤ 0.2
14,PCCG,≤ 0.2
15,LNTN,≤ 0.2
16,TDVT,≤ 0.2
17,HRYK,≤ 0.2
18,LIDL,≤ 0.2
19,DPRI,≤ 0.2
20,TTYS,≤ 0.2
21,LRMT,≤ 0.2
22,GSIY,≤ 0.2
23,EFRR,0.249
24,RITC,≤ 0.2

row,Variant,one-hybrid fitness for binding NBS DNA
1,DANR,≤ 0.2
2,KIYC,≤ 0.2
3,TMLS,≤ 0.2
4,GAKH,≤ 0.2
5,RDSL,≤ 0.2
6,AQCS,≤ 0.2
7,ENDY,≤ 0.2
8,SFST,≤ 0.2
9,EFMA,≤ 0.2
10,PRRP,≤ 0.2
11,NEHF,≤ 0.2
12,FTKT,≤ 0.2
13,LNIC,≤ 0.2
14,HISG,≤ 0.2
15,TGWV,≤ 0.2
16,QHLN,≤ 0.2
17,QTTQ,0.242
18,LLEW,≤ 0.2
19,QLSA,≤ 0.2
20,ERYY,≤ 0.2
21,SVGA,≤ 0.2
22,RSGF,≤ 0.2
23,FQHV,≤ 0.2
24,IYLS,≤ 0.2

row,Variant,one-hybrid fitness for binding NBS DNA
1,NTCR,≤ 0.2
2,LPSI,≤ 0.2
3,SVAT,≤ 0.2
4,RKIC,≤ 0.2
5,LLEA,≤ 0.2
6,QQLS,0.373
7,MLDG,≤ 0.2
8,YMYP,≤ 0.2
9,WMCC,≤ 0.2
10,TAPD,≤ 0.2
11,AVHC,≤ 0.2
12,DKGM,≤ 0.2
13,WSCI,≤ 0.2
14,LWST,≤ 0.2
15,KSNE,≤ 0.2
16,ICTV,≤ 0.2
17,VKPF,≤ 0.2
18,PDAA,≤ 0.2
19,RSIC,≤ 0.2
20,QYIK,≤ 0.2
21,DDQF,≤ 0.2
22,TRND,≤ 0.2
23,THLS,≤ 0.2
24,WDIR,≤ 0.2

row,Variant,one-hybrid fitness for binding NBS DNA
1,QLCD,≤ 0.2
2,GWYC,≤ 0.2
3,SDPY,≤ 0.2
4,VMLN,≤ 0.2
5,YSQY,≤ 0.2
6,HGAH,≤ 0.2
7,VTPD,≤ 0.2
8,PLNG,≤ 0.2
9,CFTS,≤ 0.2
10,RFFW,≤ 0.2
11,RASA,≤ 0.2
12,TSKI,≤ 0.2
13,ICTC,≤ 0.2
14,GCSF,≤ 0.2
15,LLKL,≤ 0.2
16,KGIS,≤ 0.2
17,SYAI,≤ 0.2
18,AHVY,≤ 0.2
19,APVV,≤ 0.2
20,TKKR,0.281
21,RDHS,≤ 0.2
22,PKHT,≤ 0.2
23,QYNS,0.437
24,RWVL,≤ 0.2

row,Variant,one-hybrid fitness for binding NBS DNA
1,AHII,≤ 0.2
2,RAGM,≤ 0.2
3,GRDT,≤ 0.2
4,VCSW,≤ 0.2
5,NRSR,≤ 0.2
6,VWWR,≤ 0.2
7,QLCT,0.345
8,VDAT,≤ 0.2
9,EQNF,≤ 0.2
10,RGYL,≤ 0.2
11,RHAR,0.427
12,QRHK,0.432
13,RIKK,≤ 0.2
14,VDAD,≤ 0.2
15,SNEY,≤ 0.2
16,CVEG,≤ 0.2
17,QVFW,≤ 0.2
18,EASM,≤ 0.2
19,NNSR,≤ 0.2
20,CSVR,≤ 0.2
21,HVFF,≤ 0.2
22,KRHI,≤ 0.2
23,LTDF,≤ 0.2
24,INHN,≤ 0.2

row,Variant,one-hybrid fitness for binding NBS DNA
1,RCMW,≤ 0.2
2,LADS,≤ 0.2
3,RWWG,≤ 0.2
4,VGHM,≤ 0.2
5,LMKA,≤ 0.2
6,RHTM,≤ 0.2
7,GEDS,≤ 0.2
8,PCQC,≤ 0.2
9,RQQA,≤ 0.2
10,VLSD,≤ 0.2
11,GTWC,≤ 0.2
12,QWIT,≤ 0.2
13,FTHS,≤ 0.2
14,GPRK,≤ 0.2
15,KGRV,≤ 0.2
16,ADNE,≤ 0.2
17,GSLC,≤ 0.2
18,WYTT,≤ 0.2
19,SMES,≤ 0.2
20,TMED,≤ 0.2
21,PPHR,≤ 0.2
22,AHPM,≤ 0.2
23,QEKR,0.285
24,LSFG,≤ 0.2

row,Variant,one-hybrid fitness for binding NBS DNA
1,ADTE,≤ 0.2
2,RFFT,≤ 0.2
3,LPSG,≤ 0.2
4,LSQL,≤ 0.2
5,SGQA,≤ 0.2
6,SPFC,≤ 0.2
7,HMSC,≤ 0.2
8,RDHC,≤ 0.2
9,SCVR,≤ 0.2
10,VIGT,≤ 0.2
11,VKFT,≤ 0.2
12,RLQS,0.382
13,HVHI,≤ 0.2
14,TYKQ,≤ 0.2
15,WRKN,≤ 0.2
16,VSTV,≤ 0.2
17,VNKK,≤ 0.2
18,VQTG,≤ 0.2
19,YNNR,≤ 0.2
20,FHCC,≤ 0.2
21,SNDS,≤ 0.2
22,DMIY,≤ 0.2
23,NLTF,≤ 0.2
24,NIRL,≤ 0.2

row,Variant,one-hybrid fitness for binding NBS DNA
1,CRMY,≤ 0.2
2,NQPC,≤ 0.2
3,RYQY,≤ 0.2
4,RFEI,≤ 0.2
5,HDMT,≤ 0.2
6,SWGT,≤ 0.2
7,EVDK,≤ 0.2
8,TLRQ,≤ 0.2
9,HQDA,≤ 0.2
10,QNEI,≤ 0.2
11,RMAT,0.426
12,TDTG,≤ 0.2
13,EMSP,≤ 0.2
14,KNKR,≤ 0.2
15,PSQW,≤ 0.2
16,KHYS,≤ 0.2
17,QNIT,≤ 0.2
18,SSVC,≤ 0.2
19,QMAR,0.602
20,YYEK,≤ 0.2
21,NGKY,≤ 0.2
22,LNFP,≤ 0.2
23,QQSP,≤ 0.2
24,VPCS,≤ 0.2

row,Variant,one-hybrid fitness for binding NBS DNA
1,ACGR,≤ 0.2
2,KTPQ,≤ 0.2
3,AALE,≤ 0.2
4,VRPG,≤ 0.2
5,QNKE,≤ 0.2
6,QAFD,≤ 0.2
7,TGAA,≤ 0.2
8,SYDD,≤ 0.2
9,QMPK,≤ 0.2
10,PYYT,≤ 0.2
11,TLAV,≤ 0.2
12,DWYT,≤ 0.2
13,RKFY,≤ 0.2
14,THCL,≤ 0.2
15,LFYC,≤ 0.2
16,RTIM,≤ 0.2
17,RRFQ,0.267
18,HVDN,≤ 0.2
19,GDTM,≤ 0.2
20,HDGG,≤ 0.2
21,VITF,≤ 0.2
22,GQAS,≤ 0.2
23,PDRG,≤ 0.2
24,RRIE,≤ 0.2

row,Variant,one-hybrid fitness for binding NBS DNA
1,EPTH,≤ 0.2
2,VLVC,≤ 0.2
3,WAIG,≤ 0.2
4,WPEL,≤ 0.2
5,YPLV,≤ 0.2
6,MQFR,≤ 0.2
7,GVMD,≤ 0.2
8,MVFN,≤ 0.2
9,HRMV,≤ 0.2
10,QCCK,≤ 0.2
11,PHPN,≤ 0.2
12,DGIL,≤ 0.2
13,GFTR,≤ 0.2
14,TYHQ,≤ 0.2
15,LEYG,≤ 0.2
16,AIQR,≤ 0.2
17,RPEN,≤ 0.2
18,DKRV,≤ 0.2
19,NHQC,≤ 0.2
20,QRAR,1.01
21,IQIS,≤ 0.2
22,AHSS,≤ 0.2
23,YFHT,≤ 0.2
24,RGLL,≤ 0.2

row,Variant,one-hybrid fitness for binding NBS DNA
1,KTFG,≤ 0.2
2,GYPL,≤ 0.2
3,TVDA,≤ 0.2
4,TFHM,≤ 0.2
5,ESFG,≤ 0.2
6,CAPN,≤ 0.2
7,ANQD,≤ 0.2
8,GQIV,≤ 0.2
9,NIWW,≤ 0.2
10,WASN,≤ 0.2
11,GNPF,≤ 0.2
12,AKLL,≤ 0.2
13,RMTH,≤ 0.2
14,CIMY,≤ 0.2
15,ANKY,≤ 0.2
16,CAAL,≤ 0.2
17,PLEV,≤ 0.2
18,RGAD,≤ 0.2
19,AEYS,≤ 0.2
20,CKTK,≤ 0.2
21,TLHY,≤ 0.2
22,IRPS,≤ 0.2
23,LASI,≤ 0.2
24,GDSG,≤ 0.2

row,Variant,one-hybrid fitness for binding NBS DNA
1,ASWC,≤ 0.2
2,FTVV,≤ 0.2
3,RNNQ,≤ 0.2
4,QPRN,≤ 0.2
5,AGTV,≤ 0.2
6,RHTF,≤ 0.2
7,QEYG,≤ 0.2
8,TMDR,≤ 0.2
9,MICS,≤ 0.2
10,RCNI,≤ 0.2
11,GEYF,≤ 0.2
12,LDWC,≤ 0.2
13,QMPN,≤ 0.2
14,LPWR,≤ 0.2
15,RCLE,≤ 0.2
16,LMHM,≤ 0.2
17,RTFG,≤ 0.2
18,KVHS,≤ 0.2
19,FSRS,≤ 0.2
20,QIMW,≤ 0.2
21,HSGC,≤ 0.2
22,HKYK,≤ 0.2
23,HEHL,≤ 0.2
24,SMEC,≤ 0.2

row,Variant,one-hybrid fitness for binding NBS DNA
1,HVFS,≤ 0.2
2,QTTF,≤ 0.2
3,DTQC,≤ 0.2
4,RNEP,≤ 0.2
5,AKEI,≤ 0.2
6,SVVL,≤ 0.2
7,GNCM,≤ 0.2
8,WPNN,≤ 0.2
9,TYVM,≤ 0.2
10,PNYH,≤ 0.2
11,QTRW,0.417
12,PNLF,≤ 0.2
13,AQKN,≤ 0.2
14,KWLM,≤ 0.2
15,EGSS,≤ 0.2
16,LYQG,≤ 0.2
17,QSFK,≤ 0.2
18,KKAG,≤ 0.2

# — a collection of fitness landscapes (doi:10.1016/j.celrep.2020.107928)
